{"source": "the supplement of paper PMC8728848", "binders": {"B1": {"name": "Neuropilin-2 (Homo sapiens), O60462 (protein)", "chain": "MDMFPLTWVFLALYFSRHQVRGQPDPPCGGRLNSKDAGYITSPGYPQDYPSHQNCEWIVYAPEPNQKIVLNFNPHFEIEKHDCKYDFIEIRDGDSESADLLGKHCGNIAPPTIISSGSMLYIKFTSDYARQGAGFSLRYEIFKTGSEDCSKNFTSPNGTIESPGFPEKYPHNLDCTFTILAKPKMEIILQFLIFDLEHDPLQVGEGDCKYDWLDIWDGIPHVGPLIGKYCGTKTPSELRSSTGILSLTFHTDMAVAKDGFSARYYLVHQEPLENFQCNVPLGMESGRIANEQISASSTYSDGRWTPQQSRLHGDDNGWTPNLDSNKEYLQVDLRFLTMLTAIATQGAISRETQNGYYVKSYKLEVSTNGEDWMVYRHGKNHKVFQANNDATEVVLNKLHAPLLTRFVRIRPQTWHSGIALRLELFGCRVTDAPCSNMLGMLSGLIADSQISASSTQEYLWSPSAARLVSSRSGWFPRIPQAQPGEEWLQVDLGTPKTVKGVIIQGARGGDSITAVEARAFVRKFKVSYSLNGKDWEYIQDPRTQQPKLFEGNMHYDTPDIRRFDPIPAQYVRVYPERWSPAGIGMRLEVLGCDWTDSKPTVETLGPTVKSEETTTPYPTEEEATECGENCSFEDDKDLQLPSGFNCNFDFLEEPCGWMYDHAKWLRTTWASSSSPNDRTFPDDRNFLRLQSDSQREGQYARLISPPVHLPRSPVCMEFQYQATGGRGVALQVVREASQESKLLWVIREDQGGEWKHGRIILPSYDMEYQIVFEGVIGKGRSGEIAIDDIRISTDVPLENCMEPISAFAGENFKVDIPEIHEREGYEDEIDDEYEVDWSNSSSATSGSGAPSTDKEKSWLYTLDPILITIIAMSSLGVLLGATCAGLLLYCTCSYSGLSSRSCTTLENYNFELYDGLKHKVKMNHQKCCSEA"}}, "test_in_all_cases": "glycan array binding signal (z-score within array); higher = stronger binding", "details_in_all_cases": "glycan notation: IUPAC condensed, linker removed", "key": {"[1]": {"target": "Gal(b1-3)[Fuc(a1-4)]GlcNAc(b1-2)Man(a1-3)[Gal(b1-3)[Fuc(a1-4)]GlcNAc(b1-2)Man(a1-6)]Man(b1-4)GlcNAc(b1-4)GlcNAc", "outline": "(§1)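 Glycan array binding is given as a within-array Z-score, which can be read as non-binding when negative. The arrays, 3228 of them, came from the Consortium for Functional Glycomics database and were retained only where the protein sequence was available. Z-scores were averaged across arrays of the same protein sequence at different concentrations or buffers and across linkers.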"}, "[2]": {"target": "Gal(b1-3)[Fuc(a1-4)]GlcNAc(b1-2)Man(a1-3)[Gal(b1-3)[Fuc(a1-4)]GlcNAc(b1-2)Man(a1-6)]Man(b1-4)GlcNAc(b1-4)[Fuc(a1-6)]GlcNAc", "outline": "as §1"}, "[3]": {"target": "Gal(b1-3)[Fuc(a1-4)]GlcNAc(b1-3)Gal(b1-3)[Fuc(a1-4)]GlcNAc", "outline": "as §1"}, "[4]": {"target": "Gal(b1-3)[Fuc(a1-4)]GlcNAc(b1-3)Gal(b1-4)GlcNAc", "outline": "as §1"}, "[5]": {"target": "Gal(b1-3)[Fuc(a1-4)]GlcNAc(b1-3)Gal(b1-4)[Fuc(a1-3)]GlcNAc", "outline": "as §1"}, "[6]": {"target": "Gal(b1-3)[GlcNAc(b1-6)]GalNAc", "outline": "as §1"}, "[7]": {"target": "Gal(b1-3)[Neu5Ac(a2-6)]GalNAc", "outline": "as §1"}, "[8]": {"target": "Gal(b1-3)[Neu5Ac(a2-6)]GlcNAc(b1-6)Gal(b1-4)Glc", "outline": "as §1"}, "[9]": {"target": "Gal(b1-3)[Neu5Ac(b2-6)]GalNAc", "outline": "as §1"}, "[10]": {"target": "Gal(b1-4)GalNAc(a1-3)[Fuc(a1-2)]Gal(b1-4)GlcNAc", "outline": "as §1"}, "[11]": {"target": "Gal(b1-4)GalNAc(b1-3)[Fuc(a1-2)]Gal(b1-4)GlcNAc", "outline": "as §1"}, "[12]": {"target": "Gal(b1-4)Glc", "outline": "as §1"}, "[13]": {"target": "Gal(b1-4)Glc6S", "outline": "as §1"}, "[14]": {"target": "Gal(b1-4)GlcNAc", "outline": "as §1"}, "[15]": {"target": "Gal(b1-4)GlcNAc(a1-6)Gal(b1-4)GlcNAc", "outline": "as §1"}, "[16]": {"target": "Gal(b1-4)GlcNAc(b1-2)Man(a1-3)Man(b1-4)GlcNAc(b1-4)GlcNAc", "outline": "as §1"}, "[17]": {"target": "Gal(b1-4)GlcNAc(b1-2)Man(a1-3)[Gal(b1-4)GlcNAc(b1-2)Man(a1-6)]Man(b1-4)GlcNAc(b1-4)GlcNAc", "outline": "as §1"}, "[18]": {"target": "Gal(b1-4)GlcNAc(b1-2)Man(a1-3)[Gal(b1-4)GlcNAc(b1-2)Man(a1-6)]Man(b1-4)GlcNAc(b1-4)[Fuc(a1-6)]GlcNAc", "outline": "as §1"}, "[19]": {"target": "Gal(b1-4)GlcNAc(b1-2)Man(a1-3)[Man(a1-6)]Man(b1-4)GlcNAc(b1-4)GlcNAc", "outline": "as §1"}, "[20]": {"target": "Gal(b1-4)GlcNAc(b1-2)Man(a1-6)Man(b1-4)GlcNAc(b1-4)GlcNAc", "outline": "as §1"}, "[21]": {"target": "Gal(b1-4)GlcNAc(b1-2)Man(a1-6)[Man(a1-3)]Man(b1-4)GlcNAc(b1-4)GlcNAc", "outline": "as §1"}, "[22]": {"target": "Gal(b1-4)GlcNAc(b1-2)[Gal(b1-4)GlcNAc(b1-4)]Man(a1-3)[Gal(b1-4)GlcNAc(b1-2)Man(a1-6)]Man(b1-4)GlcNAc(b1-4)GlcNAc", "outline": "as §1"}, "[23]": {"target": "Gal(b1-4)GlcNAc(b1-3)Gal(b1-3)GlcNAc", "outline": "as §1"}, "[24]": {"target": "Gal(b1-4)GlcNAc(b1-3)Gal(b1-4)Glc", "outline": "as §1"}, "[25]": {"target": "Gal(b1-4)GlcNAc(b1-3)Gal(b1-4)GlcNAc", "outline": "as §1"}, "[26]": {"target": "Gal(b1-4)GlcNAc(b1-3)Gal(b1-4)GlcNAc(b1-3)Gal(b1-4)GlcNAc", "outline": "as §1"}, "[27]": {"target": "Gal(b1-4)GlcNAc(b1-3)Gal(b1-4)[Fuc(a1-3)]GlcNAc(b1-3)Gal(b1-4)[Fuc(a1-3)]GlcNAc", "outline": "as §1"}, "[28]": {"target": "Gal(b1-4)GlcNAc(b1-3)GalNAc", "outline": "as §1"}, "[29]": {"target": "Gal(b1-4)GlcNAc(b1-3)[Gal(b1-4)GlcNAc(b1-6)]Gal(b1-4)GlcNAc", "outline": "as §1"}, "[30]": {"target": "Gal(b1-4)GlcNAc(b1-3)[GlcNAc(b1-6)]Gal(b1-4)GlcNAc", "outline": "as §1"}}, "note": "This is one part of the list."}
{"binder": "B1", "values": [{"measurement": "glycan array binding signal (z-score)", "setting": "[1]", "value": 5.64}, {"measurement": "glycan array binding signal (z-score)", "setting": "[2]", "value": 1.72}, {"measurement": "glycan array binding signal (z-score)", "setting": "[3]", "value": -0.27}, {"measurement": "glycan array binding signal (z-score)", "setting": "[4]", "value": -0.757}, {"measurement": "glycan array binding signal (z-score)", "setting": "[5]", "value": -0.191}, {"measurement": "glycan array binding signal (z-score)", "setting": "[6]", "value": -0.276}, {"measurement": "glycan array binding signal (z-score)", "setting": "[7]", "value": -0.62}, {"measurement": "glycan array binding signal (z-score)", "setting": "[8]", "value": -0.319}, {"measurement": "glycan array binding signal (z-score)", "setting": "[9]", "value": -0.168}, {"measurement": "glycan array binding signal (z-score)", "setting": "[10]", "value": -0.662}, {"measurement": "glycan array binding signal (z-score)", "setting": "[11]", "value": 0.436}, {"measurement": "glycan array binding signal (z-score)", "setting": "[12]", "value": -0.299}, {"measurement": "glycan array binding signal (z-score)", "setting": "[13]", "value": 0.052}, {"measurement": "glycan array binding signal (z-score)", "setting": "[14]", "value": -0.44}, {"measurement": "glycan array binding signal (z-score)", "setting": "[15]", "value": -0.491}, {"measurement": "glycan array binding signal (z-score)", "setting": "[16]", "value": -0.628}, {"measurement": "glycan array binding signal (z-score)", "setting": "[17]", "value": -0.476}, {"measurement": "glycan array binding signal (z-score)", "setting": "[18]", "value": -0.133}, {"measurement": "glycan array binding signal (z-score)", "setting": "[19]", "value": 0.279}, {"measurement": "glycan array binding signal (z-score)", "setting": "[20]", "value": -0.457}, {"measurement": "glycan array binding signal (z-score)", "setting": "[21]", "value": 0.295}, {"measurement": "glycan array binding signal (z-score)", "setting": "[22]", "value": -0.199}, {"measurement": "glycan array binding signal (z-score)", "setting": "[23]", "value": -0.249}, {"measurement": "glycan array binding signal (z-score)", "setting": "[24]", "value": -0.105}, {"measurement": "glycan array binding signal (z-score)", "setting": "[25]", "value": -0.377}, {"measurement": "glycan array binding signal (z-score)", "setting": "[26]", "value": -0.196}, {"measurement": "glycan array binding signal (z-score)", "setting": "[27]", "value": -0.328}, {"measurement": "glycan array binding signal (z-score)", "setting": "[28]", "value": -0.331}, {"measurement": "glycan array binding signal (z-score)", "setting": "[29]", "value": -0.256}, {"measurement": "glycan array binding signal (z-score)", "setting": "[30]", "value": -0.263}]}
